Results as given in paper PMC4336329 (PLoS ONE, 2015).
Hit rate of the full screen: of about 310,000 compounds, about 2,200 (0.71%) showed an effect of 50% or more. The effect is printed as a negative number. The list shows a part of the results.

What follows are molecules tested against human ether-à-go-go-related gene (hERG) potassium channel (human, UniProt Q12809) (assay: primary screen, population patch clamp on CHO cells stably expressing hERG).
human ether-à-go-go-related gene (hERG) potassium channel, sequence (Q12809 whole entry, looked up): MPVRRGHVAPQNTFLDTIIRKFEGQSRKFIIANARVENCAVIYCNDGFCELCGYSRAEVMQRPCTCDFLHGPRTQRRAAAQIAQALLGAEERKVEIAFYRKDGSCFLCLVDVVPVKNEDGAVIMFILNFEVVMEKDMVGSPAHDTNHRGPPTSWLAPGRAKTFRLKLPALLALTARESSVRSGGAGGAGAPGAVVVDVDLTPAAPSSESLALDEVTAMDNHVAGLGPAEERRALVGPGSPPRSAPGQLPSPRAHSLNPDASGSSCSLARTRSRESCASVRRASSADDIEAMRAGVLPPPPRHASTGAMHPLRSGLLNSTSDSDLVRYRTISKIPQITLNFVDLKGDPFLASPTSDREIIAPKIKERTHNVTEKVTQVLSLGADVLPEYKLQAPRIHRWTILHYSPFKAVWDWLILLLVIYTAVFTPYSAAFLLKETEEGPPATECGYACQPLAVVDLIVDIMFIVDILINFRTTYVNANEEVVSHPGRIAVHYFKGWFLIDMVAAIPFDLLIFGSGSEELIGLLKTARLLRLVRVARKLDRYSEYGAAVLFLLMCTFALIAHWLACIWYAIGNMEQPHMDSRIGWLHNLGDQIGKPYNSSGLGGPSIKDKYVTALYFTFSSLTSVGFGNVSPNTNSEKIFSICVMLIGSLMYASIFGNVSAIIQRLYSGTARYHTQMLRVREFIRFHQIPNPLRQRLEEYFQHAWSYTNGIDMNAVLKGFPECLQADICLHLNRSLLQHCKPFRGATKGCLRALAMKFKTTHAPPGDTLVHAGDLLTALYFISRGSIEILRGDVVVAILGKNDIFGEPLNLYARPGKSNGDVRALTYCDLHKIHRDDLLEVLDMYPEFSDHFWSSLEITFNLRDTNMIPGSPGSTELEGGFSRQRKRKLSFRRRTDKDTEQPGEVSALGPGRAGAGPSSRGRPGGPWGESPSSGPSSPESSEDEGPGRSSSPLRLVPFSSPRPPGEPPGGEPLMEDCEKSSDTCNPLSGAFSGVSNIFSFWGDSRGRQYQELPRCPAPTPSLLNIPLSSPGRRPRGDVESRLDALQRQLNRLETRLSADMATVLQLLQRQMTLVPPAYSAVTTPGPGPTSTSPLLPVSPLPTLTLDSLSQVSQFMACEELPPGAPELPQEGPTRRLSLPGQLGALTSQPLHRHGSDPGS

| SMILES | hERG current change (%, negative = inhibition) at 1uM [%] |
| --- | --- |
| CC(C)(C)c1ccc(C(=O)Nc2cccnc2)cc1 | 5.43 |
| COCCOC(=O)C1=C(C)NC(=O)NC1c1ccc(-c2ccc(F)cc2)o1 (stereo not shown) | 0.0771 |
| Cc1cc(C)nc(N/N=C/c2cc(Br)ccc2O)n1 | 17.8 |
| Cc1ccnc(NC(=O)c2cc(-c3ccc(Cl)s3)nc3ccccc23)c1 | 1.34 |
| Cc1cc(C(F)(F)F)n2nc(-c3sccc3-n3cccc3)cc2n1 | 3.43 |
| O=C(O)Cn1c(-c2ccccc2)cc2ccccc21 | 16.6 |
| CC(=O)c1ccc(-c2ccc(C(=O)NCC(c3ccc(F)cc3)N3CCOCC3)o2)cc1 (stereo not shown) | 4.28 |
| Cc1ccc(C(=O)NCCN2C3=NC[C@H](C)N3C[C@H]2Cc2ccc(O)cc2)cc1Br | 9.94 |
| Cc1onc(-c2ccccc2)c1C(=O)OCCOc1ccc([N+](=O)[O-])cc1[N+](=O)[O-] | 9.89 |
| NC(=O)C1CCN(CCC(=O)Nc2cccc(Cl)c2)CC1 | 9.38 |
| CC(C)(C)NS(=O)(=O)c1ccc2[nH]c3c(c2c1)CCCCC3 | 11.4 |
| C1=C(c2c[nH]c3ccccc23)CCN(Cc2ccccc2)C1 | 5.82 |
| O=C(CNC(=O)c1ccc(Br)o1)NC1CCCCC1 | 17 |
| CCOC(=O)C1CCN(C(=O)CCCN2C(=O)c3ccccc3C2=O)CC1 | 0.389 |
| CCOC(=O)CN(C(=O)COc1nc(-c2ccccc2)cc(C)c1C#N)c1ccccc1 | 13.4 |
| COc1ccc(Cl)cc1NC(=O)NC(C)C | 18.1 |
| O=C(O)c1cccc2cccnc12 | 4.06 |
| Cc1c(NC(=O)COC(=O)Cc2ccc(Cl)cc2)c(=O)n(-c2ccccc2)n1C | 7.54 |
| CCOC(=O)C(Cc1c(F)cccc1Cl)c1ccno1 (stereo not shown) | 12.5 |
| CCCc1ccc2oc(C(=O)N(Cc3nccn3C)C(C)C)c(C)c2c1 | 8.08 |

| SMILES | hERG current change (%, negative = inhibition) at 1uM [%] |
| --- | --- |
| C#CCOCCOCCOCCNc1nc(N2CCOCC2)nc(N2CCN(C(=O)Cn3cc(CCC[NH+]=C(N)N)nn3)CC2)n1.[Cl-] | 17.5 |
| O=[N+]([O-])c1ccc2nn(Cc3ccccc3)cc2c1 | 10.5 |
| Cc1ccc(O)c(C(=O)CC(=O)c2ccc(Cl)cc2)c1 | 17.2 |
| COc1cccc(N2CCN(c3nc(-c4ccccc4C)cc(=O)[nH]3)CC2)c1 | 4.99 |
| C/C(N)=C(/C#N)C(=O)CSc1nc2ccccc2[nH]1 | 5.05 |
| CCCc1cc(=O)oc2cc(C)cc(OC(C)C(=O)NCCCN3CCOCC3)c12 (stereo not shown) | 3.98 |
| O=c1[nH]c2c(s1)C(c1ccco1)C1C3CCC(C3)C1S2 (stereo not shown) | 11.4 |
| CC(=NCCN1CCOCC1)C1=C(O)c2ccccc2C1=O | 7.92 |
| O=[N+]([O-])c1ccc(Sc2cccc3cccnc23)c([N+](=O)[O-])c1 | 3.58 |
| Cc1c(NC(=O)c2cc(-c3ccc(Cl)cc3)on2)c(=O)n(-c2ccccc2)n1C | -14.7 |
| CCOC(=O)C1=C(Nc2ccccc2)CC(C)(O)C(C(=O)OCC)C1c1ccc(Cl)cc1 (stereo not shown) | 17.5 |
| O=C(NCC1CCCO1)c1cc2ccccc2oc1=O (stereo not shown) | 7.63 |
| C=C(C)CNC(=S)Nc1ccc(S(=O)(=O)Nc2cnc3ccccc3n2)cc1 | 5.66 |
| Cc1cccc(Nc2c([N+](=O)[O-])ccc3nonc23)c1 | 14 |
| CCOc1ccc(Nc2nc(N)nc(CN(C)C3CCCCC3)n2)cc1 | -58.2 |
| Cl.OCCN1CCN(CC(O)COCC2COc3ccccc3O2)CC1 (stereo not shown) | 21.1 |
| Cc1c(C(=O)NC2CC(=O)N(c3ccc4c(c3)OCCO4)C2)cccc1[N+](=O)[O-] (stereo not shown) | 13.6 |
| Cl.Nc1ccc(N2CCN(CCCCN3C(=O)C4CCCN4C3=O)CC2)cc1.O (stereo not shown) | 18.3 |
| CCOC(=O)c1c(N)c(C#N)c2n1CCCC2 | 8.06 |
| CNC(=O)c1ccsc1NC(=O)C1CCCN1S(=O)(=O)c1cccs1 (stereo not shown) | 17 |

| SMILES | hERG current change (%, negative = inhibition) at 1uM [%] |
| --- | --- |
| CCOC(=O)C1Cn2c(nc3c(c2=O)C(C)(C)Cc2ccccc2-3)S1 (stereo not shown) | 8.81 |
| Cc1ccc(CNC(=O)CCS(=O)(=O)c2ccc3c(c2)CC(C)N3C(=O)C2CC2)o1 (stereo not shown) | 17.6 |
| CCN(CC)C(=O)C1CCCN(Cc2ccc3c(c2)OCO3)C1 (stereo not shown) | 13.1 |
| Cc1nc(-c2cccc(S(=O)(=O)N3CCOCC3)c2)cs1 | 8.88 |
| CC(=O)Nc1ccc(NC(=O)c2c(C)noc2C)cc1 | 16.9 |
| Cc1ccccc1Nc1nccc(N(C)C)c1C#N | 9.74 |
| O=C(CSc1cccs1)Nc1ccc2ccccc2c1 | 1.11 |
| O=c1c2sccc2nc(SCc2ccc([N+](=O)[O-])cc2)n1Cc1ccccn1 | -24.8 |
| O=C(Nc1ccc2ccccc2c1)c1cc(F)c(F)cc1Cl | 15.4 |
| Cc1ccc(S(=O)(=O)CCC(=O)N2CCN(c3ccc(Cl)cc3)CC2)cc1 | 7.69 |
| CC(O)[C@@H](C(=O)N1CCNCC1)n1cc(CCCCN)nn1.Cl (stereo partly shown) | 13.1 |
| Cc1onc(-c2ccccc2)c1C(N)=O | 11.4 |
| CCCc1cc(-c2n[nH]c(C)c2-c2ccc(C(=O)OCC)o2)c(O)cc1O | 5.01 |
| Cc1ccc(-c2cc(O)cc3sc(=O)oc23)cc1C | 11.7 |
| COCCN(C(=O)Nc1ccc(OC)cc1)c1nc2ccccc2s1 | 15.3 |
| CCOc1cc(-c2noc(N)c2C(=O)OC)cc(OCC)c1OCC | 11.4 |
| COC(=O)c1cc2ccc(OC)c(OC)c2c(=O)s1 | 17.9 |
| Cc1ccc(C(=O)N2CCC(N3CCC(C(=O)N4CCOCC4)CC3)CC2)cc1C | 4.34 |
